Source: the RNAGym collection of RNA variant scans (doi:10.1073/pnas.2313332121)
Variants at the background level are over-represented here.

B1: TPR 5TU (parent)
chain: GGAUCUUCUCGAUCUAACAAAAAAGACAAAUCUGCCACAAAGCUUGAGAGCAUCUUCGGAUGCAGAGGCGGCAGCCUUCGGUGGCGCGAUAGCGCCAACGUUCUCAACUAUGACACGCAAAACGCGUGCUCCGUUGAAUGGAGUUUAUCAUG

Variants of: B1
Test: polymerase ribozyme fitness, log enrichment relative to wild type (log ratio); higher = more active; in vitro selection for triplet polymerase activity
In short: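 Fitness measures genotype enrichment against wild-type enrichment on a logarithmic scale, with inverse-variance-weighted averaging of replicates. The logarithm is base 2, and genotypes were kept only with ≥10 input reads and ≥1 read per output in Illumina sequencing. The sequenced libraries came from one triplicate in vitro selection round, including frozen incubation at −7 °C, of PCR-built, transcribed mutant libraries of each subunit of a heterodimeric triplet polymerase ribozyme.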

Variant	polymerase ribozyme fitness (log ratio)
A22C A28C A40G C43U U56G C85U	≤ -4.2
A21C G50A C54U G59A G68C C87U A113U A147G U148G	≤ -4.2
A21U U56A C57U G59U C93G C125A U135C	≤ -4.2
A21G G62C C85A C99G U151G	≤ -4.2
A21U A49C C99A G100C C118A	≤ -4.2
A22C C35A G42A G86C C96U U111G	≤ -4.2
A21U U53A U55G G92U U101A C108G G143C	≤ -4.2
A21U C51A U56A C76U G88C	≤ -4.2
A22C A40C U55A C76U U78G G86A	≤ -4.2
A21U G50C U55A A73G C96U A120C	≤ -4.2
A21G A29U A39C U53A U77C G83A G86A C96A C118A A137U	≤ -4.2
A21C U53C A66G A121U G136U	≤ -4.2
A21C C35G A49C U101A	≤ -4.2
A21U A37C A41C A60G A107G	≤ -4.2
A21G A52U C85G A119G C125U A137U	≤ -4.2
A21U A23G C27U G62C C93G U148G	≤ -4.2
A21G A41C U56G G65A G141U	-3.42
A21C A47U U56C U82A C103A A115G	≤ -4.2
A21U A49G A98G	-0.555
A21U U56A A60U C93A A106U A113U C125U A137G	≤ -4.2
A21G C54A A73G C87U C96U U151C	≤ -4.2

Variant	polymerase ribozyme fitness (log ratio)
A21C G74U U77G G94A C116G G143A	≤ -4.2
A22C G34U U82A C93A	≤ -4.2
A21C U61G C93G A98U A138C	≤ -4.2
A22C C57A C118U	-1.03
A22C G50A G83A C95U U139C G143U	≤ -4.2
A21U A28C C85G C116A G133U A142U	≤ -4.2
A21U A39U C43G G50C G92A G141U	≤ -4.2
A21G A22G A26U C36U C87U	≤ -4.2
A21C G58C U78G G81A A98C C108G	≤ -4.2
A21G A22U A73U C93G C108U	≤ -4.2
A21G G42U A60G C87U U127C G140U	≤ -4.2
A21U G67A U77C G92A A110G	≤ -4.2
A21U A37C A41C G84U G92A U104A A142U	≤ -4.2
A21G G80U C103G U145A C149G	≤ -4.2
A21U G25U G46A A60G C85A A98U	≤ -4.2
A21C G74A A89C U90A U109A C129G A137C G140A	≤ -4.2
A21G G59C U77G	≤ -4.2
A21U A29U G88C A89U C95U U104G C105U C125U A142C	≤ -4.2
A21C U56A C93A A121C U146G C149U	-2.29
A21C C57U C76A U104A A106U G140A	≤ -4.2
A21U U44A C57A C63U G65A C87A	≤ -4.2

Variant	polymerase ribozyme fitness (log ratio)
A21G C32A C51U G84A G92C	≤ -4.2
A22C A26U C43U C76A C93G C118G	≤ -4.2
A21U U77A C96U G143U U146G	≤ -4.2
A21G A23U C36G A73C C96U	≤ -4.2
A21G C32G G34C U56A G59C U82G G88U C103G G140U	≤ -4.2
A21C C96U A122C	-0.0635
A21G C54A G83U C87A C96U A122C	≤ -4.2
A22C C32G G48U U56A G100A	≤ -4.2
A21U C87U G112U	≤ -4.2
A21C C32G A37U A49G C57U C75G G84A A107C A147U	≤ -4.2
A21U A23U C54U G58A G92U	≤ -4.2
A21G A23U U33A G42A G88U A91C A97C A137C	≤ -4.2
A21C U90A G94C	≤ -4.2
A21U C69A U78G G84A A107U	≤ -4.2
A22C A26G G46C A52C G70U C85G A97U G128A	≤ -4.2
A21C G42A A52C C93U G141A	≤ -4.2
A22C C36A C75A C76G G83C U101A G136C G140C	≤ -4.2
A22C C35G G92A	≤ -4.2
A21G C132G	-3.9
A21U A26C U45C G58A G62A U77C C85U A122G	≤ -4.2
A22C A23U U53A C79A A91G C93U G94C	≤ -4.2

Variant	polymerase ribozyme fitness (log ratio)
A22C C87U C131A U139G	≤ -4.2
A21G G92C C95A C129A U130G	≤ -4.2
A21U U109G C116U A142C	≤ -4.2
A21U C43U C51U G62U C63U C85G C132U	≤ -4.2
A21U A47C A52C A60G C85G C87A A121C	≤ -4.2
A21U A29C G92A C99U G117U U130G	-3.76
A21U C54A U61A C118U U135C A142U U146G	≤ -4.2
A21U C75A A122U	-3.97
A21G C51A C76G G83A A98U C116A G141A C149A	≤ -4.2
A21G G58A A122U U145G	0.687
A21U A47C C85A A110U A122G G133U	≤ -4.2
A21U A39U A52C G70A G80C G83U C99U C118U G133U U134G A137U U151G	≤ -4.2
A21U C54U C63U G68A A73G C93G C108G U148G	≤ -4.2
A21C C114G C118U A120G C149G	≤ -4.2
A21U A29U G50A U56A G92C G141C	≤ -4.2
A22C A52U U82C G86U A97G	-3.83
A21C G50A G58A A60U C99U A113U G133A A137U	≤ -4.2
A21U C93A	-1.74
A22C G50C C114A	≤ -4.2
A21G C51G U56A A73C C96G A119U A120G C123G	≤ -4.2
